# Experimental data from article doi:10.1101/2025.05.13.653810, “Spatial control of secretory vesicle targeting by the Ync13–Rga7–Rng10 complex during cytokinesis” (bioRxiv, 2025).
# Protein sequences, listed by entry. Tags and fused reporters are not part of them.
# UniProt O74475: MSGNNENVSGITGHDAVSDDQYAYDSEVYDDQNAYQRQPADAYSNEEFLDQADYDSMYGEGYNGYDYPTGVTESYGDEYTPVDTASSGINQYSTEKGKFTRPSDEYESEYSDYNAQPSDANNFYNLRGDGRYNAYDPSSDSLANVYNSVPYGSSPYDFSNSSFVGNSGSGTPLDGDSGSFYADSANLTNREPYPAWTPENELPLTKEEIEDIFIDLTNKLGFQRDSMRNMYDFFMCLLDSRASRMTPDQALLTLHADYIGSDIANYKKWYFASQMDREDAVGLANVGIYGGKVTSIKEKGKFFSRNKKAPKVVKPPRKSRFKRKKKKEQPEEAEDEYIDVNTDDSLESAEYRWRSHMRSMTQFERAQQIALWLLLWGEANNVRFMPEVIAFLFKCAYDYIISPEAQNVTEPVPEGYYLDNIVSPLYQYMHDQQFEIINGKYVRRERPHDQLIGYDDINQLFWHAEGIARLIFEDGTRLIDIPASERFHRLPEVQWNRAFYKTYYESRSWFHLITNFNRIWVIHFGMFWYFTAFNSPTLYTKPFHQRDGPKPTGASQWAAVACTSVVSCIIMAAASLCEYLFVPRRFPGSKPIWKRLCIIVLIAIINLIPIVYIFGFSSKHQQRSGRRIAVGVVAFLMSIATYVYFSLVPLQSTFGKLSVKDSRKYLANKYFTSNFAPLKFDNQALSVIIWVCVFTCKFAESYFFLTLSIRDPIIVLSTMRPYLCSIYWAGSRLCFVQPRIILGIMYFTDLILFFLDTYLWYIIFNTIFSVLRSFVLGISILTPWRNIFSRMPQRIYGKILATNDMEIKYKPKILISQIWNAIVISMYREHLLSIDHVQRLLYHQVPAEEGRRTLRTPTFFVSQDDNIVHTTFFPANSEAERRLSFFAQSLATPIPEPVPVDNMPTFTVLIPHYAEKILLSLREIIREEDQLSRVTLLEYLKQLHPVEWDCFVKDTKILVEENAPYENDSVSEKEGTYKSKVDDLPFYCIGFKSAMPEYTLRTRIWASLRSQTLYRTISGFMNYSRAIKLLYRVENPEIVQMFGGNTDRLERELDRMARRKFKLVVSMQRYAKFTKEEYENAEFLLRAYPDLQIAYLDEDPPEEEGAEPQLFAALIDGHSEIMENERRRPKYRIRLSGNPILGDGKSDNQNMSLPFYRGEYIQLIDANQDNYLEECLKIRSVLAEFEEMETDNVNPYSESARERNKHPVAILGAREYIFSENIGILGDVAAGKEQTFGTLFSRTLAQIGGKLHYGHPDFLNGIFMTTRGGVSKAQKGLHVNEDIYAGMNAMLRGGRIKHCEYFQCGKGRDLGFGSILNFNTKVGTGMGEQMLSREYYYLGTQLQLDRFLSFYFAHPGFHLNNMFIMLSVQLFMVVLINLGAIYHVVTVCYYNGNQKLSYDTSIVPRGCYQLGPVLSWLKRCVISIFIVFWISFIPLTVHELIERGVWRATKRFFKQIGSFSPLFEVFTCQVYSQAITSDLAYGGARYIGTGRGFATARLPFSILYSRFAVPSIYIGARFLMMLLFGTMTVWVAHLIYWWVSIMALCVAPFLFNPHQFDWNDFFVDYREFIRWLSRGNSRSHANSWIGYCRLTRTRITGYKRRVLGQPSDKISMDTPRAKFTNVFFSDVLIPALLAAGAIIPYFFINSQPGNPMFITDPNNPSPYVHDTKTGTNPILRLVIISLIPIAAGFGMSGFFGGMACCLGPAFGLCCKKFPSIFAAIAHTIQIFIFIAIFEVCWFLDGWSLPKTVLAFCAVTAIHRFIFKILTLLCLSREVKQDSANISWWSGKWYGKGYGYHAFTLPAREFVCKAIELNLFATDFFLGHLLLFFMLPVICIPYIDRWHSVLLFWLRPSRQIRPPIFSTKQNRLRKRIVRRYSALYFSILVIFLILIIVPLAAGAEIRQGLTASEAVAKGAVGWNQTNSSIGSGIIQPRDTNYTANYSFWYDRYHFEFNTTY
# No constants are given. Whether binding was seen depends on the method and setting. Binding seen in cells or lysates may run through a third protein. Some results given as binding are weak or reduced against the parent protein; the word gives no strength. Tags and fused reporters may be left off the sequences shown.
# T1: Smi1-mEGFP (S. pombe) (UniProt O14362)
# T1 sequence: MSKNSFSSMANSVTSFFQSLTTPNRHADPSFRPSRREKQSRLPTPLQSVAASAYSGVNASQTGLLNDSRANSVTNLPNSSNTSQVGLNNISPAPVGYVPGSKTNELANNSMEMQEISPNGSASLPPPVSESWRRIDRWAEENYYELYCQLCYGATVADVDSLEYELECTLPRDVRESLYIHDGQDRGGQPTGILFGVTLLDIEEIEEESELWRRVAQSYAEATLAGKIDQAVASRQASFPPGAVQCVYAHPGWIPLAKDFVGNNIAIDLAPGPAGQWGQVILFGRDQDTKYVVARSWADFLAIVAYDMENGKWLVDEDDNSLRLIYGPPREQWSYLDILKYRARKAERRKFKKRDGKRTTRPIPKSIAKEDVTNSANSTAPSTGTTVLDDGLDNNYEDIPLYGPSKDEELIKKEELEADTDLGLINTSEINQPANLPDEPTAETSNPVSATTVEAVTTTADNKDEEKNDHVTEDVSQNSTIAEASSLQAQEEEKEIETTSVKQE
# T2: Ync13-mECitrine (S. pombe) (UniProt O13683)
# T2 sequence: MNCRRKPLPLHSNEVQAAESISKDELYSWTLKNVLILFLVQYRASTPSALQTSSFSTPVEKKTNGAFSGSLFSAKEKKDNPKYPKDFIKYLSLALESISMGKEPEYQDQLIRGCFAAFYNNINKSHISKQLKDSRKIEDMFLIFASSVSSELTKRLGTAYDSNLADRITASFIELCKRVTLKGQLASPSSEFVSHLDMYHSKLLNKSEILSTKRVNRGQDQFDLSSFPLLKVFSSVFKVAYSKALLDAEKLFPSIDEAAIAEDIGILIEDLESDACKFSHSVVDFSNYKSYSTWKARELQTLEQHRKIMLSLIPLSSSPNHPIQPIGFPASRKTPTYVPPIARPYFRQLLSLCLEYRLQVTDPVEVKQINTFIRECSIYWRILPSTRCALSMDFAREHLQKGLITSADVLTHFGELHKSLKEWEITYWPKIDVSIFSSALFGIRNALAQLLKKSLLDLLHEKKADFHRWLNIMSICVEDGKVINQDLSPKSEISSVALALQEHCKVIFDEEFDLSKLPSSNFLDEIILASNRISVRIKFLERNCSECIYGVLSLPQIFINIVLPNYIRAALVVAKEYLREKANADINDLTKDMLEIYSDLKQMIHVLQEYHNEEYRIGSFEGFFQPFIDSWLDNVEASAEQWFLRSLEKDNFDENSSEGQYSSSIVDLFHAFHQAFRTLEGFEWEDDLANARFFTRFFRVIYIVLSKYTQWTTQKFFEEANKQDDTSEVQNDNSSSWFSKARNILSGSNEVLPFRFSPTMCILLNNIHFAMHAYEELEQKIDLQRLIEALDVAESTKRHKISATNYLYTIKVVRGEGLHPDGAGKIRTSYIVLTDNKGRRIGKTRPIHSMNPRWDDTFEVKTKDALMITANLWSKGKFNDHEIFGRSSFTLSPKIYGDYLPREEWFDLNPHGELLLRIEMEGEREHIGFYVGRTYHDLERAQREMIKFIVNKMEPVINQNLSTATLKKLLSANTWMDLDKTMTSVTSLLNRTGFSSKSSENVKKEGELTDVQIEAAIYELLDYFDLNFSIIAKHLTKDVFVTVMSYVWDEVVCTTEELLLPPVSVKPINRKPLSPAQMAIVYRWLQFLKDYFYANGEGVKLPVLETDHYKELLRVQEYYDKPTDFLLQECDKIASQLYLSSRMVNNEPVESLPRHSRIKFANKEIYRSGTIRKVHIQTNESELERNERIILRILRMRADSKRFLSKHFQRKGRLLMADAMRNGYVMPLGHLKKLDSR
# T3: Rga7-mEGFP (S. pombe) (UniProt O94466)
# T3 sequence: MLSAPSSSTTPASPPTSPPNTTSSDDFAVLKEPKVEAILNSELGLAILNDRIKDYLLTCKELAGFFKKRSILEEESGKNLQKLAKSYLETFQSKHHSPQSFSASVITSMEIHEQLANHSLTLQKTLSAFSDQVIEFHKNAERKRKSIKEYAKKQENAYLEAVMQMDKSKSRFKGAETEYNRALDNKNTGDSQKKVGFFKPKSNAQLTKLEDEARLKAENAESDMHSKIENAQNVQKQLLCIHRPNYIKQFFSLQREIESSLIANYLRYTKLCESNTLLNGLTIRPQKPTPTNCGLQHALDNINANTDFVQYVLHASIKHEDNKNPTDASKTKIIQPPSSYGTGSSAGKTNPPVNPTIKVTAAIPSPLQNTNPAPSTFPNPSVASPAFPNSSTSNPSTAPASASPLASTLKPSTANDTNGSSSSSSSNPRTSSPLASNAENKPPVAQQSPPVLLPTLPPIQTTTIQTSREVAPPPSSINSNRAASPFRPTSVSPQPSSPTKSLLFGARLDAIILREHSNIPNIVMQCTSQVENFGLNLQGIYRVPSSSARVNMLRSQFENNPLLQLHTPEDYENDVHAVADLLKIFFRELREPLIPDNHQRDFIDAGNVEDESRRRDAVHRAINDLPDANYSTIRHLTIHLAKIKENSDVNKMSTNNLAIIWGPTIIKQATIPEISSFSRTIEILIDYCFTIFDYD
# Tests used:
# Test in all cases: co-IP; S. pombe cell extracts, proteins under native promoters; polyclonal GFP antibody on Dynabeads protein G; IP buffer 50 mM HEPES pH 7.5, 150 mM NaCl, 1 mM EDTA, 0.1% NP-40; 2 h at 4°C; blots with anti-GFP and anti-Myc
# [1] = molecular target: T1, Smi1-mEGFP (S. pombe)
# [2] = molecular target: GFP-Bgs4 (S. pombe) (UniProt O74475)
# [3] = molecular target: T2, Ync13-mECitrine (S. pombe)
# [4] = molecular target: T3, Rga7-mEGFP (S. pombe)
Binder,binding [1],binding [2],binding [3],binding [4]
"Rga7–13Myc (protein, UniProt O94466 1-695) MLSAPSSSTTPASPPTSPPNTTSSDDFAVLKEPKVEAILNSELGLAILNDRIKDYLLTCKELAGFFKKRSILEEESGKNLQKLAKSYLETFQSKHHSPQSFSASVITSMEIHEQLANHSLTLQKTLSAFSDQVIEFHKNAERKRKSIKEYAKKQENAYLEAVMQMDKSKSRFKGAETEYNRALDNKNTGDSQKKVGFFKPKSNAQLTKLEDEARLKAENAESDMHSKIENAQNVQKQLLCIHRPNYIKQFFSLQREIESSLIANYLRYTKLCESNTLLNGLTIRPQKPTPTNCGLQHALDNINANTDFVQYVLHASIKHEDNKNPTDASKTKIIQPPSSYGTGSSAGKTNPPVNPTIKVTAAIPSPLQNTNPAPSTFPNPSVASPAFPNSSTSNPSTAPASASPLASTLKPSTANDTNGSSSSSSSNPRTSSPLASNAENKPPVAQQSPPVLLPTLPPIQTTTIQTSREVAPPPSSINSNRAASPFRPTSVSPQPSSPTKSLLFGARLDAIILREHSNIPNIVMQCTSQVENFGLNLQGIYRVPSSSARVNMLRSQFENNPLLQLHTPEDYENDVHAVADLLKIFFRELREPLIPDNHQRDFIDAGNVEDESRRRDAVHRAINDLPDANYSTIRHLTIHLAKIKENSDVNKMSTNNLAIIWGPTIIKQATIPEISSFSRTIEILIDYCFTIFDYD",binds,binds,binds,–
"Smi1–13Myc (protein, UniProt O14362 1-504) MSKNSFSSMANSVTSFFQSLTTPNRHADPSFRPSRREKQSRLPTPLQSVAASAYSGVNASQTGLLNDSRANSVTNLPNSSNTSQVGLNNISPAPVGYVPGSKTNELANNSMEMQEISPNGSASLPPPVSESWRRIDRWAEENYYELYCQLCYGATVADVDSLEYELECTLPRDVRESLYIHDGQDRGGQPTGILFGVTLLDIEEIEEESELWRRVAQSYAEATLAGKIDQAVASRQASFPPGAVQCVYAHPGWIPLAKDFVGNNIAIDLAPGPAGQWGQVILFGRDQDTKYVVARSWADFLAIVAYDMENGKWLVDEDDNSLRLIYGPPREQWSYLDILKYRARKAERRKFKKRDGKRTTRPIPKSIAKEDVTNSANSTAPSTGTTVLDDGLDNNYEDIPLYGPSKDEELIKKEELEADTDLGLINTSEINQPANLPDEPTAETSNPVSATTVEAVTTTADNKDEEKNDHVTEDVSQNSTIAEASSLQAQEEEKEIETTSVKQE",–,–,–,binds
